According to patent publication US20100330105A1, “Anticancer Combination Therapies” (priority 2006, published 2010):

What was measured:
TC-1 tumor cells [1] = conditions: TC-1 tumor challenged mice
E7-specific CD8+ T cells = assay: Intracellular cytokine staining and flow cytometry, E7-specific CD8+ T cells (cisplatin and/or DNA vaccine); type: in vivo, C57BL/6 mice; conditions: TC-1 tumor-bearing mice, cisplatin alone versus no cisplatin (p<0.005)
Experimental: The stimulated splenocytes were then washed once with FACScan buffer and stained with phycoerythrin-conjugated monoclonal rat anti-mouse CD8a (clone 53.6.7). Cells were subjected to intracellular cytokine staining using the Cytofix/Cytoperm kit according to the manufacturer's instruction (BD Pharmingen, San Diego, Calif., USA). Intracellular IFN-γ was stained with FITC-conjugated rat anti-mouse IFN-γ. All antibodies were purchased from BD Pharmingen. Flow cytometry analysis was performed using FACSCalibur with CELLQuest software (BD Biosciences, Mountain View, Calif., USA).
Thirty days after tumor challenge, splenocytes from nontreated and treated mice were harvested and stained for CD8 and intracellular IFN-γ. […] (A) Representative data of intracellular cytokine stain followed by flow cytometry analysis showing the number of E7-specific IFNγ+CD8+ T cells in the different groups.

[2] = system: Luciferase-expressing TC-1 cells; assay: In vitro CTL assay after cisplatin treatment (luciferase-expressing TC-1 cells); type: cell-based, mouse; conditions: 5 ug/ml cisplatin and 1×10^6 E7-specific CTL; versus cisplatin alone or CTL alone (p<0.005)
Experimental: Luciferase-expressing TC-1 cells in medium were seeded into a 24-well roundbottom plate (5×10^4 cells/well). After sitting overnight, the medium was replaced with 1 ml of fresh medium containing 5 μg of cisplatin. The mixture of TC-1 tumor cells and cisplatin-containing medium was incubated in 5% CO2 for 24 h at 37° C. E7-specific cytotoxic T lymphocytes from the spleens of tumor challenged mice immunized with the DNA vaccine served as effector cells and were added in the amount of 1×10^6 cells/well. TC-1 cells expressing luciferase were used as target cells. […]
In FIG. 21, Luciferase-expressing TC-1 tumor cells were added to 24-well plates at a dose of 1×10^6/well. […] The degree of CTL-mediated killing of the tumor cells was indicated by the decrease of luminescence activity using the IVIS luminescence imaging system series 200. […] A) Representative luminescence images of 24-well plates showing lysis of the tumor cells. B) Bar graph depicting the quantification of luminescence intensity in tumor cells treated with cisplatin and/or E7-specific cytotoxic T cells (mean+s.d.). Note: The TC-1 tumor cells treated with cisplatin and E7-specific cytotoxic T cells led to significant loss of luminescence intensity indicating enhanced lysis of tumor cells by the E7-specific CD8+T cells (p<0.005).

TC-1 tumor cells [3] = assay: In vivo tumor growth experiments in tumor challenged mice treated with EGCG; design: species or system C57BL/6 mice
From the text: Determination of apoptotic cells in tumors. […] Intracellular cytokine staining and flow cytometry analysis. […] In vivo tumor growth experiments.

Which “difference of tumor volumes, DMXAA alone versus CRT DNA” value (TC-1 tumor cells [1]) does the source give for `Cc1ccc2c(=O)c3cccc(CC(=O)O)c3oc2c1C` [DMXAA, 5,6-dimethylxanthenone-4-acetic acid] here?
The value was “no statistical significance”.

`N.N.[Cl][Pt][Cl]` [cisplatin] was tested. Which “numbers of E7-specific CD8+ T cell precursors” value (E7-specific CD8+ T cells) did it give?
Its value is “significantly increased numbers”.

And the “luciferase activity (CTL-mediated killing of TC-1 tumor cells)” value [2]?
Its value is “lowest luciferase activity”.

epigallocatechin-3-gallate [EGCG] was tested. Which “tumor volume 1 week after termination of EGCG treatment” value (TC-1 tumor cells [3]; EGCG 2.5 mg/ml, compared to 0.5 mg/ml) did it give?
Its value is “relative increase in tumor volume”.

And the tumor regression (TC-1 tumor cells [3]; mice bearing tumors treated with only EGCG)?
The tumor regression was “dramatic regressions of the tumors did not occur”.
